Data published in patent US9989536B2, “Specific and high affinity binding proteins comprising modified SH3 domains of FYN kinase” (EIDGENOESSISCHE TECHNISCHE HOCHSCHULE ZURICH, priority 2006, dated 2018).

System: NCI-N87 tumor cell line
Test: In vitro proliferation (XTT) assay on NCI-N87 cells
Format: cell-based, human

B1: Fc-C12: clone C12 fused via (Gly4Ser)3 to the C-terminus of human Fcγ1, SEQ ID NO: 319 (protein)
chain: [sequence of human IgG1 Fc omitted]GGGGSGGGGSGGGGSGVTLFVALYDYTSYNTRDLSFHKGEKFQILRMEDGVWWEARSLTTGETGYIPSNYVAPVDSIQ
modifications: Fc fusion of Fynomer C12 (Fynomer #1; SEQ ID NO:1)
Question: With B1 as the molecule, how does the “effect on cell viability / antiproliferative effect” value (NCI-N87, 5 days, 0.015-300 nM) read?
Answer: Its value is “did not have any effect on cell viability”.

Question: And the “effect on activity of anti-HER2 antibodies when added in combination” value (NCI-N87, in combination with anti-HER2 antibody 1 or anti-HER2 antibody 2)?
Answer: The value was “did not increase or decrease the activity of these two antibodies significantly”.
